The source gives no read counts; variants with many changes may rest on few reads.
B1: LINE1-mini (parent)
chain: GGCAGAGCUCAACACAGCGUGGCAAAGUGGCUGUGGCUAGACUGCC

Variants of: B1
Assay: self-cleavage, relative activity (ratio to wild type); higher = more cleavage; in vitro, sequencing; the parent is a self-cleaving ribozyme

Variant | self-cleavage
GGCAGAACUCAACACAGCGUGGCAAAGGGGCUGUGGCCAGGCUGCC [G7A U28G U38C A41G] | 0.02
GGCAGAACGCAACACAGCGUGGCAAAAUGGCUGAGGCUAGACUGCC [G7A U9G G27A U34A] | 0.09
GGCAGAACUCAACACAGCGUGGCAAAGUGUCUGUUGAUAGACUGCC [G7A G30U G35U C37A] | 0
GGCAGAACUCAACACAGCGUGGCAAAGUCGUUGUGGCUAUACUGCC [G7A G29C C31U G40U] | 0.15
GGCAGACCUCAACACUGCGUGGCAAAGUGGUUGUGGCUAGACUGCC [G7C A16U C31U] | 0.04
GGCAGAACCCUACACAGCGUGGCAAAGUGGCUGUGGCUAGACUGCC [G7A U9C A11U] | 0.57
GGCAGAACUCAACACAGCGUGGCAAAGUGGCUGUGUCUAGACUCCC [G7A G36U G44C] | 0.1
GGCAGAACUCAACACAGCGUGGCAAAGUGGCUGUUGCUAGACAGCC [G7A G35U U43A] | 0.19
GGCAGACCUCCACACAGCGUGGCAAAGUGGAUGUGGCUAGACUGCC [G7C A11C C31A] | 0
GGCAGAACUCAACACAGCGCCGCAAAGUGGCUGUGGCUAGACUGCC [G7A U20C G21C] | 0.05
GGCAGAACUCAACACAGCGUCGCAAAGUGGCUCUAGCUAUAUUGCC [G7A G21C G33C G35A G40U C42U] | 0.14
GGCAGAACUCAACACAGCGUGGCAAAGUGGCAGUGGUUAGACUGCC [G7A U32A C37U] | 0.05
GGCAGACCUCAACACAGCGUGGCACAGUGGCUGUGGCUAGAAUGCC [G7C A25C C42A] | 0.03
GGCAGACCUCAACACUGCGUGGCAAAAUGGCUGUGGCUACACUGCC [G7C A16U G27A G40C] | 0.06
GGCAGAACCCAACACAGCGUGGCAAAGUGGCUGUGGCUAGACAGCC [G7A U9C U43A] | 0.15
GGCAGAACUCAACACAGCGUGGCAAAGUGCCUGUGGUUAGACUGCC [G7A G30C C37U] | 0.14
GGCAGACAUCAACAAAGCAUGGCAAAGUGGCUGUGGCUAGACUGCC [G7C C8A C15A G19A] | 0.29
GGCAGACCUCAACGCAGCGUGGCAAAGUGGCUCUGGCUAGACUGCA [G7C A14G G33C C46A] | 0.1
GGCAGACCUCAACACUGCGUGGCAAAGUUGAUGUGGGUAGACUGCC [G7C A16U G29U C31A C37G] | 0

Variant | self-cleavage
GGCAGAACUCAACACAGCGUCGCACAGUGGCUGAGGCUAGACUGCC [G7A G21C A25C U34A] | 0.01
GGCAGACCUCAACACGGCGUGGCAUAGUGGCUGUGGCUAGACUGCC [G7C A16G A25U] | 0.01
GGCAGACAUCAACACAGAGUGGCAAAGUGGCUGUGGCUAGACUGCC [G7C C8A C18A] | 0.15
GGCAGAACUCAACACAGCGUGGCAAAGUGACUGUGGAUCGACUGCC [G7A G30A C37A A39C] | 0.19
GGCAGACCUCCACACAGCGUGGGAAAGUGGUUGUGGCUAGACUGCC [G7C A11C C23G C31U] | 0.02
GGCAGAACUCAACACAGCGUGGCAAAUUUGCUGUGGCUAGACUGCC [G7A G27U G29U] | 0.16
GGCAGACACCAACACGGCGUGGCAAACUGUAUGUGGCUAGACUGCC [G7C C8A U9C A16G G27C G30U C31A] | 0.07
GGCAGACCUCAACACAGCGUGGCAAGGUGGCUGUGGCUAGAAUGCC [G7C A26G C42A] | 0.17
GGCAGAACUCAACACAGCGUGGCAAAGUCGCUGUGCCAAGACUGCC [G7A G29C G36C U38A] | 0.11
GGCAGAACUCAACACAGCGUUGCAAAGUGGCUGUGAAUAGACCGCC [G7A G21U G36A C37A U43C] | 0.48
GGCAGACCUAAACACAGCGUGGCAAAGUGGCUGUGGCUGGACUGCC [G7C C10A A39G] | 0.01
GGCAGAACACAACACAGCGUGGGAAAGUGGCUGUGGCUAGACUGCC [G7A U9A C23G] | 0.09
GGCAGAACCCAACACACCGUGGCAAGGUGGCUAUGGCUAGACUGCC [G7A U9C G17C A26G G33A] | 0.01
GGCAGAACUCAACACAGCGUAACAAAGUGGCUCUGGCUAGACUGCC [G7A G21A G22A G33C] | 0.18
GGCAGAACUCAACACAGCGUGGCAAAGUGGCUUUGGCUGGACUGCA [G7A G33U A39G C46A] | 0.07
GGCAGAACGCAACACAGCGUCACUAAGUGGCUGCGUCUAGACUGCC [G7A U9G G21C G22A A24U U34C G36U] | 0.03
GGCAGAACGGAACACACCGAGGCAAAGUGACUGUGACUAGACUGCC [G7A U9G C10G G17C U20A G30A G36A] | 0.02
GGCAGACCUCAACACGGCAUGGCAAAGUGGCUAUGGCUAGACUGCC [G7C A16G G19A G33A] | 0.01
GGCAGACCUCAACGCGACGUGGCAAAGUGGCUGUGGCUAGACUGCC [G7C A14G A16G G17A] | 0

Variant | self-cleavage
GGCAGAACUCAACACAGCGUGGCAAAAUGGCUGUGGCUAGACAGCC [G7A G27A U43A] | 0.06
GGCAGACCUCAACUCAACGUGGCAAAGUGGCUGUGGCUAGACAGGC [G7C A14U G17A U43A C45G] | 0.04
GGCAGAACUCAACACAGCGUGGCAAAGUGGCUGUAGCUAGACUGAC [G7A G35A C45A] | 0.01
GGCAGACCUCUACCCACCGUGCCAAAGUGGCUGUGGCUAGACUUCC [G7C A11U A14C G17C G22C G44U] | 0.01
GGCAGACCUCUACACAGCGUGGCAAAGUGGCUGUGGCUAGACUGCG [G7C A11U C46G] | 0.01
GGCAGACCUCAACUCAGAGUGGCAAAGUGGCGCUGGCAAGACUGCC [G7C A14U C18A U32G G33C U38A] | 0.04
GGCAGACACCAACACAGCGUGGCAAAGUGGCUGUGGCUAGACUGCC [G7C C8A U9C] | 0.19
GGCAGACCUCGACACAGCGUGGCAAAGUCGCUGUGGCUAGACUGCC [G7C A11G G29C] | 0.02
GGCAGAACUCAACACAGCGUGGCAAACUGGCUGUGGCUAGAAUGCC [G7A G27C C42A] | 0.04
GGCAGACCUCGGGACAGCGUGGCGAAGUGGCUGUGUCUAGACUGCC [G7C A11G A12G C13G A24G G36U] | 0.01
GGCAGACCUCAUCACAGCGUGGGAAAUUGGCUGUGGCUAGACGUCC [G7C A12U C23G G27U U43G G44U] | 0.05
GGCAGACGUCAACACAGCGUGGCAAUGUGGCUGUGUCUAGACUGCC [G7C C8G A26U G36U] | 0.2
GGCAGAACUCAACACAGCGUGGCAAAGUGGCUGCCGCUAGACUGCC [G7A U34C G35C] | 0.01
GGCAGACGUCAACACACCGUGGCAAAGUGGCUGUGGCUAGACUGCG [G7C C8G G17C C46G] | 0.05
GGCAGAACUCAACACAGCGCGGAAGAGUGACUGUGGCUAGACUGCC [G7A U20C C23A A25G G30A] | 0.01
GGCAGACCUCCACACUGCGUGGCAAAGUGGCUGUGGCUAGACUGCC [G7C A11C A16U] | 0.01
GGCAGACCUCAACACAGCGUGGCAACGUGGUUGUGGCUUGACUGCC [G7C A26C C31U A39U] | 0.02
GGCAGACCUCAACACCGCGUGGCAAAGUGGCCGUGGCUAGACUGCC [G7C A16C U32C] | 0.17

— the RNAGym collection of RNA variant scans (doi:10.7554/elife.90254)
